Variants at the floor of the assay are shown more often than the library holds them.
B1: tRNA (parent)
chain: CUCUCGGUAGCCAAGUUGGUUUAAGGCGCAAGACUUUAAUUUAUCACUACGAAAUCUUGAGAUCGGGCGUUCGACUCGCCCCCGGGAGAUUUUUUCCUCGAGCAA

Variants of: B1
Experiment: nonsense suppression (GFP-seq) (ratio to wild type); higher = more function; SUP4oc tRNA, yeast GFP reporter sort-seq
How it was run: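 Raffinose/galactose medium with 80 mg/L adenine was used to grow yeast carrying genome-integrated tRNA variants (~3% random-mutation library), RFP, and a galactose-driven GFP ochre reporter. Cells went into GFP/RFP bins, which were Illumina-sequenced, and variants with ≥100 reads and ≥30 cells were scored. Nonsense suppression (GFPSEQ) is the per-bin median GFP/RFP weighted by estimated cell share and expressed relative to the unmutated parent tRNA.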

| Variant | nonsense suppression |
| --- | --- |
| C3A A54G | ≤ 0.026 |
| C3A A54G G66C | ≤ 0.026 |
| C3A A54G G88C | ≤ 0.026 |
| C3A A62C G85C | ≤ 0.026 |
| C3A A89G | ≤ 0.026 |
| C3A C5A U21G G66U | ≤ 0.026 |
| C3A C5G A23C | ≤ 0.026 |
| C3A C5G G6C A30U U55A G78A G84A G88C | ≤ 0.026 |
| C3A C5G U57C U70A | ≤ 0.026 |
| C3A C5U U22C | ≤ 0.026 |
| C3A C11A | ≤ 0.026 |
| C3A C11A C34U G69C | ≤ 0.026 |
| C3A C11G G66C C77G C79G G86U | ≤ 0.026 |
| C3A C11U | ≤ 0.026 |
| C3A C11U G32A U58C A60C A89U | ≤ 0.026 |
| C3A C12A C27A C29A G61A G66U G84C A89U | ≤ 0.026 |
| C3A C12G G18U U20G G61U U70G C75G | ≤ 0.026 |
| C3A C12G U57C A87U | ≤ 0.026 |
| C3A C12U G65C G85C | ≤ 0.026 |
| C3A C12U U17G A87G | ≤ 0.026 |
| C3A C27A C81A | ≤ 0.026 |
| C3A C27G G32A U35G U71A | ≤ 0.026 |
| C3A C27G G65A | ≤ 0.026 |
| C3A C27G U63G G86A | ≤ 0.026 |

| Variant | nonsense suppression |
| --- | --- |
| C3A C27U | ≤ 0.026 |
| C3A C27U A33G G59U G88U A89G | ≤ 0.026 |
| C3A C27U A62G | ≤ 0.026 |
| C3A C29U | ≤ 0.026 |
| C3A C29U A33C A74G | ≤ 0.026 |
| C3A C29U A89U | ≤ 0.026 |
| C3A C34A G88C | ≤ 0.026 |
| C3A C34G | ≤ 0.026 |
| C3A C56U A62C | ≤ 0.026 |
| C3A C64A G69U | ≤ 0.026 |
| C3A C68A | ≤ 0.026 |
| C3A C72A | ≤ 0.026 |
| C3A C72G C80U C83G G86A | ≤ 0.026 |
| C3A C72G C81G | ≤ 0.026 |
| C3A C82A | ≤ 0.026 |
| C3A G6A | ≤ 0.026 |
| C3A G6A G65C | ≤ 0.026 |
| C3A G6U G32U C56G | ≤ 0.026 |
| C3A G7A G28A A31G | ≤ 0.026 |
| C3A G7C | ≤ 0.026 |
| C3A G10U U35G | ≤ 0.026 |
| C3A G15C G26A | ≤ 0.026 |
| C3A G15C U58G | ≤ 0.026 |
| C3A G15U C72G | ≤ 0.026 |

| Variant | nonsense suppression |
| --- | --- |
| C3A G15U U16G G18A G19C G26U | ≤ 0.026 |
| C3A G18C C83A | ≤ 0.026 |
| C3A G19U A62G | ≤ 0.026 |
| C3A G19U G25A | ≤ 0.026 |
| C3A G26A G28U U58G | ≤ 0.026 |
| C3A G26A G86C | ≤ 0.026 |
| C3A G26A U55C | ≤ 0.026 |
| C3A G28C A54U U55A U57C C68G U76A | ≤ 0.026 |
| C3A G28C C34G U58C G86C | ≤ 0.026 |
| C3A G32C U70C | ≤ 0.026 |
| C3A G59C | ≤ 0.026 |
| C3A G59U | ≤ 0.026 |
| C3A G61A | ≤ 0.026 |
| C3A G65C | ≤ 0.026 |
| C3A G66A | ≤ 0.026 |
| C3A G66A C80G G86C | ≤ 0.026 |
| C3A G66C C75G | ≤ 0.026 |
| C3A G67C U70C G78U | ≤ 0.026 |
| C3A G69C | ≤ 0.026 |
| C3A G73U | ≤ 0.026 |
| C3A G78A | 0.0776 |
| C3A G84A | ≤ 0.026 |
| C3A G86C | ≤ 0.026 |
| C3A G88A | ≤ 0.026 |

| Variant | nonsense suppression |
| --- | --- |
| C3A G88C | ≤ 0.026 |
| C3A U4A A14G G73A | ≤ 0.026 |
| C3A U4A U16A C68G G88U | ≤ 0.026 |
| C3A U4C G10C A30C | ≤ 0.026 |
| C3A U4C U21G G85U | ≤ 0.026 |
| C3A U8A G32U A62C | ≤ 0.026 |
| C3A U8C | ≤ 0.026 |
| C3A U8G A13G | ≤ 0.026 |
| C3A U8G G88A | ≤ 0.026 |
| C3A U17A | ≤ 0.026 |
| C3A U17C A62G | ≤ 0.026 |
| C3A U17C U35G G88U | ≤ 0.026 |
| C3A U20A | ≤ 0.026 |
| C3A U20A A87G | ≤ 0.026 |
| C3A U20C A74U | ≤ 0.026 |
| C3A U20C C34A U76A | ≤ 0.026 |
| C3A U20G A30C A33G G69C G73C | ≤ 0.026 |
| C3A U20G G28U U57C G61C A74U G78C C79A | ≤ 0.026 |
| C3A U21A A33C G84U | ≤ 0.026 |
| C3A U21A C29G C68A G78C | ≤ 0.026 |
| C3A U21C | ≤ 0.026 |
| C3A U21C C68G | ≤ 0.026 |
| C3A U21G A24U | ≤ 0.026 |
| C3A U22A G32C C72G | ≤ 0.026 |

| Variant | nonsense suppression |
| --- | --- |
| C3A U22C G78A | ≤ 0.026 |
| C3A U22G U35G G67C G69A U71G | ≤ 0.026 |
| C3A U35A | ≤ 0.026 |
| C3A U35G C81A G88A | ≤ 0.026 |
| C3A U35G G61A C77G | ≤ 0.026 |
| C3A U55A U57G A60G C75G | ≤ 0.026 |
| C3A U55C U63A G65A | ≤ 0.026 |
| C3A U57A | ≤ 0.026 |
| C3A U57A C80U A89U | ≤ 0.026 |
| C3A U57C G61U | ≤ 0.026 |
| C3A U57G G69A | ≤ 0.026 |
| C3A U58G C79A | ≤ 0.026 |
| C3A U58G U76A | ≤ 0.026 |
| C3A U63C G69A | ≤ 0.026 |
| C3A U71G C79G | ≤ 0.026 |
| C3G | ≤ 0.026 |
| C3G A9C G18C A31U A54U A60U C68U U71C | ≤ 0.026 |
| C3G A9G G59U | ≤ 0.026 |
| C3G A9U C27U G59U G73A | ≤ 0.026 |
| C3G A9U U55G | ≤ 0.026 |
| C3G A13U | 0.0541 |
| C3G A13U U16C A24U U55A G86C | ≤ 0.026 |
| C3G A14C G26A | ≤ 0.026 |
| C3G A14C U35C A60G | ≤ 0.026 |

| Variant | nonsense suppression |
| --- | --- |
| C3G A14G U16C U35G G88A | ≤ 0.026 |
| C3G A23C C72G C80U | ≤ 0.026 |
| C3G A23U C27U A54G | ≤ 0.026 |
| C3G A23U C72A | ≤ 0.026 |
| C3G A23U C77G | ≤ 0.026 |
| C3G A24C A31C | ≤ 0.026 |
| C3G A24U A60U U63C | ≤ 0.026 |
| C3G A30C A54U | ≤ 0.026 |
| C3G A30G C34A G78C | ≤ 0.026 |
| C3G A30G C34G U55G G69C C79A | ≤ 0.026 |
| C3G A30G U58A | ≤ 0.026 |
| C3G A31C G59A A87U | ≤ 0.026 |
| C3G A31G G65C C75G | ≤ 0.026 |
| C3G A54C | 0.0677 |
| C3G A60U | ≤ 0.026 |
| C3G A62C | ≤ 0.026 |
| C3G A62G A74G C75A | ≤ 0.026 |
| C3G C5A C12U G15U U58A | ≤ 0.026 |
| C3G C5G G6U A24U C72G A74C C83A | ≤ 0.026 |
| C3G C5U | ≤ 0.026 |
| C3G C5U A23G | ≤ 0.026 |
| C3G C5U U58G C72G | ≤ 0.026 |
| C3G C11G | ≤ 0.026 |
| C3G C11U C29G | ≤ 0.026 |

| Variant | nonsense suppression |
| --- | --- |
| C3G C12A G59A G84A | ≤ 0.026 |
| C3G C12G G18C A31G G78A | ≤ 0.026 |
| C3G C12U A54U | ≤ 0.026 |
| C3G C12U U16C U55G | ≤ 0.026 |
| C3G C27A | ≤ 0.026 |
| C3G C27A U57A | ≤ 0.026 |
| C3G C27G | ≤ 0.026 |
| C3G C29U A87G | ≤ 0.026 |
| C3G C29U A87U | ≤ 0.026 |
| C3G C34A | ≤ 0.026 |
| C3G C56A C81A | ≤ 0.026 |
| C3G C56U G66C G88A A89G | ≤ 0.026 |
| C3G C68U G88A | ≤ 0.026 |
| C3G C75A | ≤ 0.026 |
| C3G C79G | ≤ 0.026 |
| C3G C82A | ≤ 0.026 |
| C3G G6A A74C C82U A87C G88A | ≤ 0.026 |
| C3G G6A C83G | ≤ 0.026 |
| C3G G6A G19U A31U G66U G69C | ≤ 0.026 |
| C3G G6C U20A A23U A30U | ≤ 0.026 |
| C3G G6U A9C U58A G85A | ≤ 0.026 |
| C3G G6U C34A A62U G86U | ≤ 0.026 |
| C3G G6U U8A G10C A24G A62C | ≤ 0.026 |
